From publication PMC7105294, “STUB1 is targeted by the SUMO-interacting motif of EBNA1 to maintain Epstein-Barr Virus latency” (PLoS Pathogens, 2020) come the findings set out here.

This experiment concerns the target T1, GST-fusion wild type EBNA1 DBD (441-619) (Epstein-Barr virus, UniProt P03211 441-619).
T1 construct: source: E. coli BL21 (DE3), purified (Glutathione Sepharose)
T1 sequence: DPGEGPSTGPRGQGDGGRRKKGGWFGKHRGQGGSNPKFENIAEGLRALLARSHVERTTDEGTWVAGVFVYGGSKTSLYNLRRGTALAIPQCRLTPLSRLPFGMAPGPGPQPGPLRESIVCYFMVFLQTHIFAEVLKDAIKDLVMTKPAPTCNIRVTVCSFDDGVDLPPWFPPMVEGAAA
Description: pull-down; purified His-SUMO1/2 incubated with GST-fusion EBNA1 DBD proteins purified from E. coli, pulled down with Glutathione-sepharose beads; immunoblot. The conditions noted are these: both partners purified. On the technique in general: Immunoblotting shows a protein as a band on a membrane.

B1: His-SUMO1 recombinant protein (natural protein)
chain: not shown
notes: also called His-tagged SUMO1; source: E. coli BL21 (DE3), purified (Ni-NTA agarose)
In the case of B1, the binding result is recorded as “binds”.
